Further values from the same series stand in other lists.
Assays:
Rat [1] = experiment: concentration in liver after dosing; details: 1 h; dosed: 3,3',4,4',5-pentachlorobiphenyl; 1000 mg/kg; oral; Female; F344
Rat [2] = experiment: concentration in liver after dosing; details: 768 h; dosed: 3,3',4,4',5-pentachlorobiphenyl; 1000 mg/kg; oral; Female; Harlan Sprague Dawley
Rat [3] = experiment: concentration in liver after dosing; details: 24 h; dosed: 3,3',4,4',5-pentachlorobiphenyl; 1000 mg/kg; oral; Female; F344
Rat [4] = experiment: concentration in liver after dosing; details: 120 h; dosed: 3,3',4,4',5-pentachlorobiphenyl; 1000 mg/kg; oral; Female; Harlan Sprague Dawley
Rat [5] = experiment: concentration in plasma after dosing; details: 8760 h; dosed: 3,3',4,4',5-pentachlorobiphenyl; 1000 mg/kg; oral; Male; Harlan Sprague Dawley
Rat [6] = experiment: concentration in liver after dosing; details: 8184 h; dosed: 3,3',4,4',5-pentachlorobiphenyl; 1000 mg/kg; oral; Male; Harlan Sprague Dawley
Rat [7] = experiment: concentration in liver after dosing; details: 2208 h; dosed: 3,3',4,4',5-pentachlorobiphenyl; 1000 mg/kg; oral; Female; Harlan Sprague Dawley
Rat [8] = experiment: concentration in plasma after dosing; details: 8760 h; dosed: 3,3',4,4',5-pentachlorobiphenyl; 1000 mg/kg; oral; Male; Harlan Sprague Dawley; remark: listed apart in the source
Rat [9] = experiment: concentration in liver after dosing; details: 768 h; dosed: 3,3',4,4',5-pentachlorobiphenyl; 1000 mg/kg; oral; Female; Harlan Sprague Dawley; remark: listed apart in the source
Rat [10] = experiment: concentration in plasma after dosing; details: 8760 h; dosed: 3,3',4,4',5-pentachlorobiphenyl; 1000 mg/kg; oral; Male; Harlan Sprague Dawley; remark: listed apart in the source
Rat [11] = experiment: concentration in brain after dosing; details: 0.5 h; dosed: alpha/beta-Thujone mixture; 50 mg/kg; oral; Male; F344
Rat [12] = experiment: concentration in plasma after dosing; details: 6 h; dosed: alpha/beta-Thujone mixture; 25 mg/kg; oral; Female; F344
Rat [13] = experiment: concentration in plasma after dosing; details: 0.5 h; dosed: alpha/beta-Thujone mixture; 50 mg/kg; oral; Female; F344
Rat [14] = experiment: concentration in plasma after dosing; details: 6 h; dosed: 76231-76-0; 3.0 mg/kg; iv; Male; F344
Rat [15] = experiment: concentration in plasma after dosing; details: 20 min; dosed: 76231-76-0; 3.0 mg/kg; iv; Male; F344
Rat [16] = experiment: concentration in plasma after dosing; details: 1.5 h; dosed: alpha/beta-Thujone mixture; 50 mg/kg; oral; Male; F344
Rat [17] = experiment: concentration in plasma after dosing; details: 3 h; dosed: alpha/beta-Thujone mixture; 50 mg/kg; oral; Male; F344
Rat [18] = experiment: concentration in brain after dosing; details: 12 h; dosed: alpha/beta-Thujone mixture; 50 mg/kg; oral; Female; F344
Rat [19] = experiment: concentration in brain after dosing; details: 5 min; dosed: alpha/beta-Thujone mixture; 50 mg/kg; oral; Female; F344
Rat [20] = experiment: concentration in plasma after dosing; details: 2 min; dosed: alpha/beta-Thujone mixture; 25 mg/kg; oral; Female; F344
Rat [21] = experiment: concentration in brain after dosing; details: 1.5 h; dosed: alpha/beta-Thujone mixture; 25 mg/kg; oral; Male; F344
Rat [22] = experiment: concentration in plasma after dosing; details: 5 min; dosed: 76231-76-0; 3.0 mg/kg; iv; Female; F344
Rat [23] = experiment: concentration in brain after dosing; details: 5 min; dosed: alpha/beta-Thujone mixture; 25 mg/kg; oral; Female; F344
Rat [24] = experiment: concentration in plasma after dosing; details: 3 h; dosed: alpha/beta-Thujone mixture; 25 mg/kg; oral; Female; F344
Rat [25] = experiment: concentration in plasma after dosing; details: 0.5 h; dosed: 76231-76-0; 3.0 mg/kg; iv; Female; F344
Rat [26] = experiment: concentration in plasma after dosing; details: 0.25 h; dosed: 76231-76-0; 3.0 mg/kg; iv; Female; F344
Rat [27] = experiment: concentration in brain after dosing; details: 0.5 h; dosed: alpha/beta-Thujone mixture; 50 mg/kg; oral; Female; F344
Rat [28] = experiment: concentration in plasma after dosing; details: 6 h; dosed: alpha/beta-Thujone mixture; 25 mg/kg; oral; Female; F344; remark: listed apart in the source
Rat [29] = experiment: concentration in plasma after dosing; details: 0.75 h; dosed: 76231-76-0; 3.0 mg/kg; iv; Male; F344
Rat [30] = experiment: concentration in brain after dosing; details: 3 h; dosed: alpha/beta-Thujone mixture; 50 mg/kg; oral; Female; F344
Rat [31] = experiment: concentration in brain after dosing; details: 2 min; dosed: alpha/beta-Thujone mixture; 25 mg/kg; oral; Female; F344
Rat [32] = experiment: concentration in plasma after dosing; details: 4 h; dosed: 76231-76-0; 3.0 mg/kg; iv; Male; F344
Rat [33] = experiment: concentration in plasma after dosing; details: 10 min; dosed: alpha/beta-Thujone mixture; 50 mg/kg; oral; Female; F344
Rat [34] = experiment: concentration in brain after dosing; details: 10 min; dosed: 76231-76-0; 3.0 mg/kg; iv; Female; F344
Rat [35] = experiment: concentration in brain after dosing; details: 1 h; dosed: 76231-76-0; 3.0 mg/kg; iv; Female; F344
Rat [36] = experiment: concentration in plasma after dosing; details: 3 h; dosed: 76231-76-0; 3.0 mg/kg; iv; Female; F344
Rat [37] = experiment: concentration in brain after dosing; details: 6 h; dosed: alpha/beta-Thujone mixture; 25 mg/kg; oral; Female; F344
Rat [38] = experiment: concentration in brain after dosing; details: 2 h; dosed: 76231-76-0; 3.0 mg/kg; iv; Male; F344
Rat [39] = experiment: concentration in brain after dosing; details: 6 h; dosed: alpha/beta-Thujone mixture; 50 mg/kg; oral; Male; F344
Rat [40] = experiment: concentration in plasma after dosing; details: 2 min; dosed: alpha/beta-Thujone mixture; 50 mg/kg; oral; Female; F344
Rat [41] = experiment: concentration in plasma after dosing; details: 6 h; dosed: 76231-76-0; 3.0 mg/kg; iv; Male; F344; remark: listed apart in the source

Clc1ccc(-c2cc(Cl)c(Cl)c(Cl)c2)cc1Cl [3,3',4,4',5-pentachlorobiphenyl]
Details	concentration in liver [pg/g]	concentration in plasma [ng/mL]
Rat [1]	1520	–
Rat [2]	6160	–
Rat [3]	19700	–
Rat [4]	9560	–
Rat [5]	–	0.0288
Rat [6]	1350	–
Rat [7]	3830	–
Rat [8]	–	0.0212
Rat [9]	3660	–
Rat [10]	–	0.0158

CC(C)[C@]12CC(=O)[C@H](C)[C@H]1C2 [alpha-Thujone]
Details	concentration in brain [ng/g]	concentration in plasma [ng/mL]
Rat [11]	830	–
Rat [12]	–	21.6
Rat [13]	–	640
Rat [14]	–	22.5
Rat [15]	–	265
Rat [16]	–	339
Rat [17]	–	242
Rat [18]	37.2	–
Rat [19]	915	–
Rat [20]	–	12.9
Rat [21]	309	–
Rat [22]	–	647
Rat [23]	2500	–
Rat [24]	–	84.8
Rat [25]	–	69.6
Rat [26]	–	174
Rat [27]	3070	–
Rat [28]	–	43
Rat [29]	–	91.1
Rat [30]	435	–
Rat [31]	35.3	–
Rat [32]	–	20.9
Rat [33]	–	743
Rat [34]	1850	–
Rat [35]	100	–
Rat [36]	–	11.9
Rat [37]	185	–
Rat [38]	50.6	–
Rat [39]	234	–
Rat [40]	–	152
Rat [41]	–	21.4

— EPA's CvTdb concentration-time database
